Key:
in vitro = conditions: dog
[1] = test system: A/Puerto Rico/8/1934 (PR8; H1N1); assay: microbe, parasite or virus in culture; conditions: Influenza A virus, MDCK
[2] = test system: A/Hong Kong/8/1968 (HK; H3N2); assay: microbe, parasite or virus in culture; conditions: Influenza A virus, H3N2, MDCK

CCC(CC)O[C@@H]1C=C(C(=O)O)C[C@H](N=C(N2C(=O)C3CCC(C)CC3C2=O)N2C(=O)C3CCC(C)CC3C2=O)[C@H]1NC(C)=O (stereo partly drawn) [OSC-GCDI(CM)]
CC50 at 3 days (in vitro): > 100000 nM
EC50 [1]: 30 ± 10 nM
EC50 [2]: 10 ± 10 nM
